# Reference: the supplement of paper PMC8728848
# This is one part of the list.
# B1: E-Selectin (Mus musculus), Q00690 (protein)
# chain: MNASRFLSALVFVLLAGESTAWYYNASSELMTYDEASAYCQRDYTHLVAIQNKEEINYLNSNLKHSPSYYWIGIRKVNNVWIWVGTGKPLTEEAQNWAPGEPNNKQRNEDCVEIYIQRTKDSGMWNDERCNKKKLALCYTASCTNASCSGHGECIETINSYTCKCHPGFLGPNCEQAVTCKPQEHPDYGSLNCSHPFGPFSYNSSCSFGCKRGYLPSSMETTVRCTSSGEWSAPAPACHVVECEALTHPAHGIRKCSSNPGSYPWNTTCTFDCVEGYRRVGAQNLQCTSSGIWDNETPSCKAVTCDAIPQPQNGFVSCSHSTAGELAFKSSCNFTCEQSFTLQGPAQVECSAQGQWTPQIPVCKAVQCEALSAPQQGNMKCLPSASGPFQNGSSCEFSCEEGFELKGSRRLQCGPRGEWDSKKPTCSAVKCDDVPRPQNGVMECAHATTGEFTYKSSCAFQCNEGFSLHGSAQLECTSQGKWTQEVPSCQVVQCPSLDVPGKMNMSCSGTAVFGTVCEFTCPDDWTLNGSAVLTCGATGRWSGMPPTCEAPVSPTRPLVVALSAAGTSLLTSSSLLYLLMRYFRKKAKKFVPASSCQSLQSFENYHVPSYNV
# Key:
# Experiment in all cases: glycan array binding signal (z-score within array); higher = stronger binding
# Conditions in all cases: glycan notation: IUPAC condensed, linker removed
# [1] = target: Gal(b1-4)GlcNAc(b1-3)Gal(b1-4)GlcNAc
# Outline: (§1)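 Arrays were curated from the Consortium for Functional Glycomics database, 3228 in total, and kept only where the protein sequence was available. Binding is expressed as a within-array Z-score. This score was averaged across arrays of the same protein sequence at different concentrations or buffers and across linkers, and negative values can be read as non-binding.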
# [2] = target: Gal(b1-4)GlcNAc(b1-3)Gal(b1-4)GlcNAc(b1-3)Gal(b1-4)GlcNAc
# Outline: as §1
# [3] = target: Gal(b1-4)GlcNAc(b1-3)Gal(b1-4)[Fuc(a1-3)]GlcNAc(b1-3)Gal(b1-4)[Fuc(a1-3)]GlcNAc
# Outline: as §1
# [4] = target: Gal(b1-4)GlcNAc(b1-3)GalNAc
# Outline: as §1
# [5] = target: Gal(b1-4)GlcNAc(b1-3)[Gal(b1-4)GlcNAc(b1-6)]Gal(b1-4)GlcNAc
# Outline: as §1
# [6] = target: Gal(b1-4)GlcNAc(b1-3)[Gal(b1-4)GlcNAc(b1-6)]GalNAc
# Outline: as §1
# [7] = target: Gal(b1-4)GlcNAc(b1-3)[GlcNAc(b1-6)]Gal(b1-4)GlcNAc
# Outline: as §1
# [8] = target: Gal(b1-4)GlcNAc(b1-6)Gal(b1-4)GlcNAc
# Outline: as §1
# [9] = target: Gal(b1-4)GlcNAc(b1-6)Gal(b1-4)GlcNAc(b1-6)GalNAc
# Outline: as §1
# [10] = target: Gal(b1-4)GlcNAc(b1-6)GalNAc
# Outline: as §1
# [11] = target: Gal(b1-4)GlcNAc(b1-6)[Gal(b1-3)]GalNAc
# Outline: as §1
# Gal3S(b1-3)GalNAc = target: Gal3S(b1-3)GalNAc
# Outline: as §1
# Gal3S(b1-3)GlcNAc = target: Gal3S(b1-3)GlcNAc
# Outline: as §1
# [12] = target: Gal3S(b1-3)[Fuc(a1-4)]GlcNAc
# Outline: as §1
# Gal3S(b1-4)Glc = target: Gal3S(b1-4)Glc
# Outline: as §1
# Gal3S(b1-4)Glc6S = target: Gal3S(b1-4)Glc6S
# Outline: as §1
# Gal3S(b1-4)GlcNAc = target: Gal3S(b1-4)GlcNAc
# Outline: as §1
# Gal3S(b1-4)GlcNAc6S = target: Gal3S(b1-4)GlcNAc6S
# Outline: as §1
# [13] = target: Gal3S(b1-4)[Fuc(a1-3)]Glc
# Outline: as §1
# Gal3S4S(b1-4)GlcNAc = target: Gal3S4S(b1-4)GlcNAc
# Outline: as §1
# Gal3S6S(b1-4)GlcNAc = target: Gal3S6S(b1-4)GlcNAc
# Outline: as §1
# Gal3S6S(b1-4)GlcNAc6S = target: Gal3S6S(b1-4)GlcNAc6S
# Outline: as §1
# Gal4S(b1-4)GlcNAc = target: Gal4S(b1-4)GlcNAc
# Outline: as §1
# Gal4S6S(b1-4)GlcNAc = target: Gal4S6S(b1-4)GlcNAc
# Outline: as §1
# Gal6S(b1-4)Glc = target: Gal6S(b1-4)Glc
# Outline: as §1
# Gal6S(b1-4)Glc6S = target: Gal6S(b1-4)Glc6S
# Outline: as §1
# Gal6S(b1-4)GlcNAc = target: Gal6S(b1-4)GlcNAc
# Outline: as §1
# Gal6S(b1-4)GlcNAc6S = target: Gal6S(b1-4)GlcNAc6S
# Outline: as §1
# GalNAc(a1-3)Gal = target: GalNAc(a1-3)Gal
# Outline: as §1
# GalNAc(a1-3)GalNAc = target: GalNAc(a1-3)GalNAc
# Outline: as §1
# GalNAc(b1-3)Gal = target: GalNAc(b1-3)Gal
# Outline: as §1
# [14] = target: GalNAc(b1-3)Gal(a1-4)Gal(b1-4)GlcNAc
# Outline: as §1
# GalNAc(b1-3)GalNAc = target: GalNAc(b1-3)GalNAc
# Outline: as §1
# GalNAc(b1-4)GlcNAc = target: GalNAc(b1-4)GlcNAc
# Outline: as §1
# Glc(a1-4)Glc = target: Glc(a1-4)Glc
# Outline: as §1
# Glc(a1-6)Glc(a1-6)Glc = target: Glc(a1-6)Glc(a1-6)Glc
# Outline: as §1
# Glc(b1-4)Glc = target: Glc(b1-4)Glc
# Outline: as §1
# Glc(b1-6)Glc = target: Glc(b1-6)Glc
# Outline: as §1
# GlcA(b1-3)Gal = target: GlcA(b1-3)Gal
# Outline: as §1
# GlcA(b1-3)GlcNAc = target: GlcA(b1-3)GlcNAc
# Outline: as §1
# GlcA(b1-6)Gal = target: GlcA(b1-6)Gal
# Outline: as §1
# [15] = target: GlcNAc(a1-3)Gal(b1-4)GlcNAc
# Outline: as §1
# [16] = target: GlcNAc(a1-6)Gal(b1-4)GlcNAc
# Outline: as §1
# [17] = target: GlcNAc(b1-2)Gal(b1-3)GalNAc
# Outline: as §1
# [18] = target: GlcNAc(b1-2)Man(a1-3)[GlcNAc(b1-2)Man(a1-6)]Man(b1-4)GlcNAc(b1-4)GlcNAc
# Outline: as §1
# GlcNAc(b1-3)Gal = target: GlcNAc(b1-3)Gal
# Outline: as §1
# [19] = target: GlcNAc(b1-3)Gal(b1-3)GalNAc
# Outline: as §1
# GlcNAc(b1-3)Gal(b1-4)Glc = target: GlcNAc(b1-3)Gal(b1-4)Glc
# Outline: as §1
# [20] = target: GlcNAc(b1-3)Gal(b1-4)GlcNAc
# Outline: as §1
# [21] = target: GlcNAc(b1-3)Gal(b1-4)GlcNAc(b1-3)Gal(b1-4)GlcNAc
# Outline: as §1
# GlcNAc(b1-3)GalNAc = target: GlcNAc(b1-3)GalNAc
# Outline: as §1
# GlcNAc(b1-3)Man = target: GlcNAc(b1-3)Man
# Outline: as §1
# [22] = target: GlcNAc(b1-3)[GlcNAc(b1-4)][GlcNAc(b1-6)]GlcNAc
# Outline: as §1
# [23] = target: GlcNAc(b1-3)[GlcNAc(b1-6)]Gal(b1-4)GlcNAc
# Outline: as §1
# [24] = target: GlcNAc(b1-3)[GlcNAc(b1-6)]GalNAc
# Outline: as §1
# [25] = target: GlcNAc(b1-3)[GlcNAc(b1-6)]GlcNAc(b1-4)GlcNAc
# Outline: as §1
# [26] = target: GlcNAc(b1-4)Gal(b1-4)GlcNAc
# Outline: as §1
# GlcNAc(b1-4)GlcNAc = target: GlcNAc(b1-4)GlcNAc
# Outline: as §1
# [27] = target: GlcNAc(b1-4)GlcNAc(b1-4)GlcNAc
# Outline: as §1
# [28] = target: GlcNAc(b1-4)GlcNAc(b1-4)GlcNAc(b1-4)GlcNAc(b1-4)GlcNAc
# Outline: as §1
binder,measurement,setting,value
B1,glycan array binding signal (z-score),[1],-0.293
same,glycan array binding signal (z-score),[2],-0.322
same,glycan array binding signal (z-score),[3],-0.342
same,glycan array binding signal (z-score),[4],-0.338
same,glycan array binding signal (z-score),[5],-0.259
same,glycan array binding signal (z-score),[6],-0.376
same,glycan array binding signal (z-score),[7],-0.127
same,glycan array binding signal (z-score),[8],-0.3
same,glycan array binding signal (z-score),[9],-0.109
same,glycan array binding signal (z-score),[10],-0.287
same,glycan array binding signal (z-score),[11],-0.294
same,glycan array binding signal (z-score),Gal3S(b1-3)GalNAc,-0.365
same,glycan array binding signal (z-score),Gal3S(b1-3)GlcNAc,-0.23
same,glycan array binding signal (z-score),[12],4.55
same,glycan array binding signal (z-score),Gal3S(b1-4)Glc,-0.261
same,glycan array binding signal (z-score),Gal3S(b1-4)Glc6S,-0.245
same,glycan array binding signal (z-score),Gal3S(b1-4)GlcNAc,-0.309
same,glycan array binding signal (z-score),Gal3S(b1-4)GlcNAc6S,-0.241
same,glycan array binding signal (z-score),[13],3.13
same,glycan array binding signal (z-score),Gal3S4S(b1-4)GlcNAc,-0.301
same,glycan array binding signal (z-score),Gal3S6S(b1-4)GlcNAc,-0.192
same,glycan array binding signal (z-score),Gal3S6S(b1-4)GlcNAc6S,0.03
same,glycan array binding signal (z-score),Gal4S(b1-4)GlcNAc,-0.17
same,glycan array binding signal (z-score),Gal4S6S(b1-4)GlcNAc,-0.159
same,glycan array binding signal (z-score),Gal6S(b1-4)Glc,-0.319
same,glycan array binding signal (z-score),Gal6S(b1-4)Glc6S,-0.175
same,glycan array binding signal (z-score),Gal6S(b1-4)GlcNAc,-0.326
same,glycan array binding signal (z-score),Gal6S(b1-4)GlcNAc6S,-0.262
same,glycan array binding signal (z-score),GalNAc(a1-3)Gal,-0.289
same,glycan array binding signal (z-score),GalNAc(a1-3)GalNAc,-0.295
same,glycan array binding signal (z-score),GalNAc(b1-3)Gal,-0.283
same,glycan array binding signal (z-score),[14],-0.339
same,glycan array binding signal (z-score),GalNAc(b1-3)GalNAc,-0.3
same,glycan array binding signal (z-score),GalNAc(b1-4)GlcNAc,-0.332
same,glycan array binding signal (z-score),Glc(a1-4)Glc,-0.307
same,glycan array binding signal (z-score),Glc(a1-6)Glc(a1-6)Glc,-0.343
same,glycan array binding signal (z-score),Glc(b1-4)Glc,-0.299
same,glycan array binding signal (z-score),Glc(b1-6)Glc,-0.291
same,glycan array binding signal (z-score),GlcA(b1-3)Gal,-0.296
same,glycan array binding signal (z-score),GlcA(b1-3)GlcNAc,-0.247
same,glycan array binding signal (z-score),GlcA(b1-6)Gal,-0.227
same,glycan array binding signal (z-score),[15],-0.361
same,glycan array binding signal (z-score),[16],-0.338
same,glycan array binding signal (z-score),[17],-0.238
same,glycan array binding signal (z-score),[18],-0.088
same,glycan array binding signal (z-score),GlcNAc(b1-3)Gal,-0.346
same,glycan array binding signal (z-score),[19],-0.238
same,glycan array binding signal (z-score),GlcNAc(b1-3)Gal(b1-4)Glc,-0.322
same,glycan array binding signal (z-score),[20],-0.293
same,glycan array binding signal (z-score),[21],-0.264
same,glycan array binding signal (z-score),GlcNAc(b1-3)GalNAc,-0.248
same,glycan array binding signal (z-score),GlcNAc(b1-3)Man,-0.324
same,glycan array binding signal (z-score),[22],-0.326
same,glycan array binding signal (z-score),[23],-0.36
same,glycan array binding signal (z-score),[24],-0.279
same,glycan array binding signal (z-score),[25],-0.371
same,glycan array binding signal (z-score),[26],-0.265
same,glycan array binding signal (z-score),GlcNAc(b1-4)GlcNAc,-0.324
same,glycan array binding signal (z-score),[27],-0.26
same,glycan array binding signal (z-score),[28],-0.282
